# Laboratory results as given in paper PMC6664820, “Novel natural and synthetic inhibitors of solute carriers SGLT1 and SGLT2” (Pharmacology Research & Perspectives, 2019).
# In all, about 1,900 compounds went through this assay and about 40 (2%) showed an effect of 50% or more. Some of the results follow. Residues, ends and D or L forms follow the SMILES beside them.
# Target: human SGLT1 (hSGLT1) (human, UniProt P13866)
# Test: primary screen, percent of control activity; higher = less effect of the substance
# Set-up: single well
# Details: 50 µM
# How it was run: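 Single-point screen at 50 µmol/L in CHO-hSGLT1 cells, with 160 µmol/L 1-NBD-glucose in glucose-free DMEM for 90 min at 37°C. Fluorescence from isopropanol extracts was calibrated, and CHO wild-type uptake was subtracted. Data are percent of uptake without compound.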
# Sequence of human SGLT1 (hSGLT1) (P13866 whole entry, looked up): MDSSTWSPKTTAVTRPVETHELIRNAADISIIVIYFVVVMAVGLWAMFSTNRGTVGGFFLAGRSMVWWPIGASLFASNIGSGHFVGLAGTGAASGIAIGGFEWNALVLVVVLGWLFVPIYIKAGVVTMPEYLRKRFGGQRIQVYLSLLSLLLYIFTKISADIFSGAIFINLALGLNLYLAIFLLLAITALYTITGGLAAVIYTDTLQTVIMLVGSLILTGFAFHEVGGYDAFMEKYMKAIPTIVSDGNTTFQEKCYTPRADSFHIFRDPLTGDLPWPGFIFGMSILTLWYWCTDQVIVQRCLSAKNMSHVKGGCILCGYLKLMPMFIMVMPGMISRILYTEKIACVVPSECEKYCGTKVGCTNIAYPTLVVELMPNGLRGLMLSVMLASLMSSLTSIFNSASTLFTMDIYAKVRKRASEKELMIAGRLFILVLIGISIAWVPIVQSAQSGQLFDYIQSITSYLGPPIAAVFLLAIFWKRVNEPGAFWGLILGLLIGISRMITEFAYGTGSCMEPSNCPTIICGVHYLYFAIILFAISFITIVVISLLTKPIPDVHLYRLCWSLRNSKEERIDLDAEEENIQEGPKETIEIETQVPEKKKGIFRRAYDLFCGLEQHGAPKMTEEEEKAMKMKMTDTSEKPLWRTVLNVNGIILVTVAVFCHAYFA
row,SMILES,NORMALIZED SGLT1 ACTIVITY (%)
1,COC(=O)[C@]1(C)CC[C@]2(C)CC[C@]3(C)C4=CC=C5C(=CC(=O)C(O)=C5C)[C@]4(C)CC[C@@]3(C)[C@@H]2C1,121
2,CCCCCCCCCCCCCCCCOP(=O)([O-])OCC[N+](C)(C)C,79
3,C#CCN(C)Cc1ccccc1.Cl,134
4,COC1=CC23CCCN2CCc2cc4c(cc2C3C1O)OCO4 (stereo not shown),107
5,Cc1cc(O)c(C=O)c2c1C(=O)Oc1c(C)c(O)c3c(c1O2)C(O)OC3=O (stereo not shown),142
6,COc1ccc2c(c1)OC1(O)COc3cc(OC)c(OC)cc3C1=C2 (stereo not shown),172
7,CCCCCCCCC(=O)NCc1ccc(O)c(OC)c1,161
8,CC(=O)OC1CCC23C(=O)OC45CCC(C6=CC(=O)OC6)C4(C)CCC2C5CCC3(O)C1 (stereo not shown),99
9,CC(C)c1ccc2c(c1)CCC1C(C)(C(N)=O)CCCC21C (stereo not shown),136
10,O=c1c(O)cc([C@H]2Oc3cc(O)cc(O)c3C[C@H]2O)cc2c([C@H]3Oc4cc(O)cc(O)c4C[C@H]3O)cc(O)c(O)c12,130
11,CN(Cc1cnc2nc(N)nc(N)c2n1)c1ccc(C(=O)N[C@@H](CCC(=O)O)C(=O)O)cc1,94
12,CN1C[C@H](C(=O)N[C@]2(C)O[C@@]3(O)[C@@H]4CCCN4C(=O)[C@H](Cc4ccccc4)N3C2=O)C[C@@H]2c3cccc4[nH]cc(c34)C[C@H]21.CS(=O)(=O)O,230
13,CC(=O)O[C@H]1CC[C@]2(C)C3=CC(=O)[C@@]4(C)C(C[C@@H]5OC6(OCC(C)CC6Br)[C@@H](C)[C@@H]54)C3CC[C@H]2C1 (stereo partly shown),164
14,O=C1CCc2cc(OCCCCc3nnnn3C3CCCCC3)ccc2N1,231
15,CCCCOc1cc(CC2CNC(=O)N2)ccc1OC (stereo not shown),157
16,CCOc1ccc(C(=O)c2ccc(O)c(O)c2O)cc1,324
17,COc1cc([C@@H]2c3cc4c(cc3[C@@H](O[C@@H]3O[C@@H]5CO[C@@H](c6cccs6)O[C@H]5[C@H](O)[C@H]3O)[C@H]3COC(=O)[C@H]23)OCO4)cc(OC)c1O,317
18,CC1(C)C(=O)[C@@H]2C[C@@]3(O)C4=CC(=O)O[C@@H](c5ccoc5)[C@]4(C)CCC3[C@@](C)(C2=O)[C@H]1CC(=O)O (stereo partly shown),110
19,O=C(O)COc1ccc(Cl)cc1Cl,196
20,CCOC(=O)c1c(C)cc(O)cc1O,175
21,C[C@]12C=CC(=O)C=C1CCC1C2C(=O)C[C@@]2(C)C1CC[C@]2(O)C(=O)CO (stereo partly shown),127

row,SMILES,NORMALIZED SGLT1 ACTIVITY (%)
1,O=C(O[C@@H]1Cc2c(O)cc(O)cc2O[C@@H]1c1cc(O)c(O)c(O)c1)c1cc(O)c(O)c(O)c1,134
2,CCc1ccc(CCOc2ccc(CC3SC(=O)NC3=O)cc2)nc1.Cl (stereo not shown),179
3,COc1cc(/C=C/C(=O)O)ccc1O,147
4,C[C@H](CCC(=O)O)[C@H]1CCC2C3C(CC[C@@]21C)[C@@]1(C)CC[C@@H](O)C[C@H]1C[C@H]3O (stereo partly shown),231
5,CCCNCC(O)COc1ccccc1C(=O)CCc1ccccc1.Cl (stereo not shown),77
6,COC(=O)[C@]1(C)CC[C@]2(C)CC[C@]3(C)C4=CCc5c(cc(OC(C)=O)c(OC(C)=O)c5C)[C@]4(C)CC[C@@]3(C)C2C1 (stereo partly shown),116
7,CC(=O)c1c(O)cc(O)cc1O,144
8,O=c1c(-c2cc(O)c(O)c(O)c2)coc2cc(O)c(O)c(O)c12,134
9,CC(C)[C@H](N)C(=O)N[C@@H](Cc1c[nH]c2ccccc12)C(=O)O (H-Val-Trp-OH),97
10,CC(=O)Nc1nnc(S(N)(=O)=O)s1,107
11,C/C=C/c1ccc(OC)cc1,191
12,CC1=C2[C@H]3OC(=O)[C@@H](C)[C@@H]3CC[C@@]2(C)C=CC1=O,101
13,c1ccc2c(c1)cc1ccc3cccc4ccc2c1c34,186
14,CC(=O)Oc1cc(OC(C)=O)c2c(c1)O[C@H](c1ccc(OC(C)=O)c(OC(C)=O)c1)[C@@H](OC(C)=O)C2,62
15,Cc1cc(=O)[nH]c(=S)[nH]1,112
16,NS(=O)(=O)c1cc2c(cc1C(F)(F)F)NC(Cc1ccccc1)NS2(=O)=O (stereo not shown),125
17,CC(=O)Oc1ccc(/C=C/c2cc(OC(C)=O)cc(OC(C)=O)c2)cc1,222
18,C[N+](C)(C)CCCCCC[N+](C)(C)C.[Br-].[Br-],95
19,COc1cc(S(C)=O)ccc1-c1nc2cccnc2[nH]1 (stereo not shown),237
20,CC(=O)O[C@H]1CC[C@]2(C)C3CC[C@@]4(C)C(CC5O[C@@]6(CCC(C)CO6)[C@@H](C)C54)C3CC[C@@H]2C1 (stereo partly shown),94
21,Cn1c(=O)c2c(ncn2C)n(C)c1=O,178

row,SMILES,NORMALIZED SGLT1 ACTIVITY (%)
1,CCCSc1ccc2nc(NC(=O)OC)[nH]c2c1,124
2,COc1c(N2CCNC(C)C2)c(F)cc2c(=O)c(C(=O)O)cn(C3CC3)c12 (stereo not shown),125
3,COC(=O)C[C@H]1C(C)(C)[C@@H](OC(C)=O)[C@@H]2CC3C4CC(=O)O[C@@H](c5ccoc5)[C@]4(C)CCC3[C@@]1(C)C2=O (stereo partly shown),111
4,NS(=O)(=O)c1cc(C2(O)NC(=O)c3ccccc32)ccc1Cl (stereo not shown),132
5,Cl.NCCc1ccc(O)c(O)c1,99
6,CC[C@@]1(C2O[C@@H](C3O[C@@](O)(CC)[C@H](C)C[C@@H]3C)C[C@@H]2C)CC[C@H]([C@]2(C)CCC3(C[C@H](O)[C@@H](C)[C@@H]([C@H](C)[C@@H](OC)[C@H](C)C(=O)[O-])O3)O2)O1.[Na+] (stereo partly shown),156
7,C[C@@H]1CC[C@@]2(OC1)O[C@H]1CC3C4CC[C@H]5C[C@@H](O)CC[C@]5(C)C4CC[C@]3(C)[C@H]1[C@@H]2C (stereo partly shown),151
8,CC(C)=CCc1c(O)cc(C)oc1=O,102
9,O=C(O[C@@H]1Cc2c(O)cc(O)cc2O[C@@H]1c1cc(O)c(O)c(O)c1-c1c([C@H]2Oc3cc(O)cc(O)c3C[C@H]2O)cc(O)c(O)c1O)c1cc(O)c(O)c(O)c1,105
10,Oc1c(Cl)cc(Cl)c(Cl)c1Cc1c(O)c(Cl)cc(Cl)c1Cl,-43
11,CSCCC(NC=O)C(=O)NC(CC(C)C)C(=O)NC(Cc1ccccc1)C(=O)O (stereo not shown),125
12,O=C(CCCCCCCCCCCCC1CCCC1)Nc1ccc(S(=O)(=O)c2ccc(NC(=O)CCCCCCCCCCCCC3CCCC3)cc2)cc1,128
13,O=C(O)c1cc(O)c(O)c(O)c1,112
14,CC1=NN(c2ccccc2)C(=O)C1,113
15,COC(=O)C[C@H]1C(C)(C)C2(Cl)O[C@@]34CC2C(=O)[C@]1(C)C3CC[C@]1(C)C4=CC(=O)O[C@H]1c1ccoc1 (stereo partly shown),116
16,C=C1C2CC[C@@]3(C)[C@H](c4ccoc4)OC(=O)C[C@]13O[C@H]1CC(=O)C(C)(C)[C@H](C(OC(C)=O)C(=O)OC)[C@@]21C (stereo partly shown),197
17,CC1CCC2(OC1)OC1CC3C4CCC5C[C@@H](O)CCC5(C)C4=CCC3(C)C1[C@@H]2C (stereo partly shown),89
18,COc1cc2c(cc1OC)[C@@H]1C(=O)c3ccc(O)c(CC=C(C)C)c3O[C@@H]1CO2,206
19,COc1cc2c(c(OC)c1OC)-c1ccc(O)c(=O)cc1[C@@H](NC(C)=O)CC2,103
20,CC1(C)C=CC(=O)[C@@]2(C)C1CC(=O)[C@]1(C)C2CC[C@@]2(C)[C@H](c3ccoc3)OC(=O)[C@H]3O[C@]321 (stereo partly shown),85
21,OCc1ccccc1O,108

row,SMILES,NORMALIZED SGLT1 ACTIVITY (%)
1,COc1cc2c(cc1OC)C(=O)c1ccc(OC)c(OC)c1OCC(=O)C2,169
2,O=C(O[C@@H]1Cc2c(O)cc(O)cc2O[C@@H]1c1ccc(O)c(O)c1)c1cc(O)c(O)c(O)c1,115
3,O=C(O)c1ccc(S(=O)(=O)N(Cl)Cl)cc1,89
4,NC(CSCSCC(N)C(=O)O)C(=O)O (stereo not shown),117
5,COC(=O)[C@H](c1ccccc1Cl)N1CCc2sccc2C1.O=S(=O)(O)O,58
6,NC(=O)c1cccc(N)c1,87
7,CC(C(=O)O)c1ccc2c(c1)[nH]c1ccc(Cl)cc12 (stereo not shown),331
8,Cc1onc(-c2ccccc2)c1C(=O)NC1C(=O)N2[C@@H]1SC(C)(C)[C@@H]2C(=O)[O-].[Na+] (stereo partly shown),88
9,CCCCCc1c2c(cc(O)c1C(=O)O)OC(=O)c1c(cc(OC)cc1C(=O)CCCC)O2,152
10,COc1ccc(C[C@H](N)C(=O)N[C@@H]2[C@@H](CO)OC(n3cnc4c(N(C)C)ncnc43)[C@@H]2O)cc1.Cl.Cl (stereo partly shown),116
11,CC[C@@H]1C(=O)OC[C@@H]1Cc1cncn1C.O=[N+]([O-])O,110
12,O=C(O)Cc1nn(Cc2ccc(Br)cc2F)c(=O)c2ccccc12,180
13,CCCCCCCC/C=C/CCCCCCCCOP(=O)([O-])OCC[N+](C)(C)C,99
14,CC(=O)OCC(=O)[C@H]1CC[C@H]2[C@@H]3CCC4=CC(=O)CC[C@]4(C)[C@H]3CC[C@]12C,114
15,C=C1C2CC[C@@]3(C)[C@H](c4ccoc4)OC(=O)C[C@]13O[C@H]1CC(=O)C(C)(C)[C@H](C(O)C(=O)OC)[C@@]21C (stereo partly shown),112
16,CC1(C)[C@@H](OC(=O)CCC(=O)O)CC[C@]2(C)[C@H]3C(=O)C=C4[C@@H]5C[C@@](C)(C(=O)O)CC[C@]5(C)CC[C@@]4(C)[C@]3(C)CC[C@@H]12,91
17,COc1ccc(Cl)cc1C(=O)NCCc1ccc(S(=O)(=O)NC(=O)NC2CCCCC2)cc1,132
18,CC(=O)OCC1=C(C(=O)[O-])N2C(=O)[C@@H](NC(=O)CCCC(N)C(=O)O)C2SC1.[Na+] (stereo partly shown),106
19,CC(=O)O[C@@H]1CC2C(C)(C)C(=O)[C@@H]3O[C@@H]3[C@]2(C)C2CC[C@]3(C)C(=CC(=O)O[C@H]3c3ccoc3)[C@@]21C (stereo partly shown),221
